{"source": "PubChem BioAssay AID662", "about": "(National Center for Advancing Translational Sciences (NCATS), 2007)", "note": "In all, about 71,000 compounds went through this assay and about 1,800 (2.5%) were called active. This list was built around the results that the source calls inconclusive (neither active nor inactive); the mix of calls is not that of the screen. The call rests on the fitted dose curve; in most records, active means well fitted activation curve with a large enough effect in the signal ratio, with a control signal flat (not every such curve was filed as active); inconclusive means small, poorly fitted or top-dose-only effect, or effect the other way, or a change in a side signal; inactive means flat fitted curve, though single readings scatter; the % refers to the signal ratio. Where the call is inconclusive, the potency comes from a doubtful curve fit. Potency means the concentration at half of the fitted maximal effect; tags describe the fitted curve by direction and shape.", "data": [{"experiment": "Cell signaling CRE-BLA (Fsk stim); on activity change, negative = inhibition: % of control where 0% means no effect", "details": "CHO CRE-bla reporter (cAMP response element driving beta-lactamase), forskolin EC10, beta-lactamase ratio; activity change, negative = inhibition: at 38.2 µM (top of the series) unless noted", "method_in_brief": "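Forskolin analogue NKH 477 at EC10 stimulated CRE-driven beta-lactamase in CHO cells alongside compound dilution series. Beta-lactamase was measured with CCF4, excitation 405 nm, emission ratio 460/530 nm.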", "values": [{"smiles": "CC(=NCc1ccco1)c1c(O)n(C2CCCCC2)c(=O)[nH]c1=O", "Potency": "inconclusive: 20 µM [rising, single point]"}, {"smiles": "CC(C)(N)CO[C@H]1C[C@H]2CC[C@@]1(C)C2(C)C", "activity change, negative = inhibition": "inactive: 4.63% [at 7.6 µM]"}, {"smiles": "Cc1oc(C(=O)O)cc1COc1ccc2c3c(c(=O)oc2c1C)CCCC3", "Potency": "inconclusive: 3.16 µM [rising, single point]"}, {"smiles": "COc1cccc(-c2cc(C(F)(F)F)n3ncc(C(=O)NCC4CCCO4)c3n2)c1", "note": "(configuration not stated)", "Potency": "inconclusive: 6.31 µM [rising, partial curve]"}, {"smiles": "C[C@]12CC[C@H]3c4ccc(O)cc4CC[C@@H]3[C@H]1CC[C@@H]2OC(=O)CCc1ccccc1", "activity change, negative = inhibition": "inactive: 4.47% [at 7.6 µM]"}, {"smiles": "O=C(Nc1c(C(=O)N2CCOCC2)cnn1-c1ccccc1)c1ccco1", "Potency": "inactive"}, {"smiles": "O=c1c2ccccc2sc2nc(C3CCCCC3)n(Cc3ccco3)c(=O)c12", "Potency": "inactive"}, {"smiles": "Cc1cccc(C)c1NC(=O)CSCCO", "Potency": "inconclusive: 0.126 µM [falling, single point]"}, {"smiles": "CC1CCCCN1CCCn1c(=S)[nH]c2ccccc2c1=O", "note": "(configuration not stated)", "activity change, negative = inhibition": "inconclusive: 13%"}, {"smiles": "O=C(CN1c2cccc3cccc(c23)S1(=O)=O)N1CCOCC1", "Potency": "inactive"}, {"smiles": "CC(Oc1ccc(Br)cc1)C(=O)N1CCc2ccccc21", "note": "(configuration not stated)", "activity change, negative = inhibition": "inconclusive: -23.6%"}, {"smiles": "CCCn1nc(NS(C)(=O)=O)c2cc3cccc(C)c3nc21", "activity change, negative = inhibition": "inconclusive: -0.834%"}, {"smiles": "COc1cccc(Cn2c(=O)c(C)nc3cnc(OC)nc32)c1", "Potency": "inconclusive: 7.94 µM [rising, partial curve]"}, {"smiles": "CCc1ccc(NS(=O)(=O)c2ccc3[nH]cc(C(=O)N4CCCCC4)c(=O)c3c2)cc1", "Potency": "inconclusive: 0.0501 µM [falling, full curve, poor fit]"}, {"smiles": "COc1ccc(C/C(O)=C(\\C#N)c2nc3ccccc3s2)cc1", "Potency": "inactive"}, {"smiles": "O=C(CCC(=O)OCC(F)(F)C(F)F)Nc1ccc(Cl)cc1", "Potency": "inactive"}, {"smiles": "C#CCN1C(=O)C(O)(CC(=O)c2cccc(OC)c2)c2ccccc21", "note": "(configuration not stated)", "activity change, negative = inhibition": "inconclusive: -11%"}, {"smiles": "COc1ccc(Cl)cc1N1C(=O)[C@@H]2C(c3cccc(OC)c3OC)=NO[C@@H]2C1=O", "Potency": "inconclusive: 3.98 µM [rising, full curve]"}, {"smiles": "CC(=O)c1ccc(S(=O)(=O)N(Cc2cc3cc4c(cc3[nH]c2=O)OCCO4)CC2CCCO2)cc1", "note": "(configuration not stated)", "Potency": "inactive"}, {"smiles": "CC(C)Cn1c(CN2C(=O)c3ccccc3C2=O)nc2ccccc2c1=O", "activity change, negative = inhibition": "inconclusive: 18.4%"}, {"smiles": "Cc1ccc(C2C3=C(CCCC3=O)Nc3[nH]c(=S)[nH]c(=O)c32)cc1", "note": "(configuration not stated)", "activity change, negative = inhibition": "inconclusive: 14.1%"}, {"smiles": "COc1ccc(CCC(=O)Nc2nc3c(s2)CN(C)CC3)cc1OC", "Potency": "inactive"}, {"smiles": "O=C(Oc1ccc(-c2cnc3ccccc3n2)cc1)c1ccco1", "Potency": "inconclusive: 2 µM [rising, partial curve]"}, {"smiles": "CCOc1ccc2c(c1)cc(CN(C(=O)CC)C1CCCCC1)c1nnnn12", "Potency": "inconclusive: 12.6 µM [rising, partial curve]"}, {"smiles": "O=S(=O)(Nc1ccc2c(c1)OCCO2)c1cnc[nH]1", "Potency": "inactive"}, {"smiles": "NS(=O)(=O)c1cc2c(cc1Cl)=NC(CCC(=O)O)=NS=2(=O)O", "activity change, negative = inhibition": "inactive: -7.43% [at 7.6 µM]"}, {"smiles": "CCN1C2=C(C(=O)CCC2)C(c2ccc(O)cc2)C2=C1CCCC2=O", "Potency": "inactive"}, {"smiles": "Cc1nc2cnc(N3CCNCC3)nc2n(CCc2ccccc2)c1=O", "Potency": "inconclusive: 12.6 µM [rising, partial curve]"}, {"smiles": "CCOc1cc(-c2nc(-c3cc(OC)c(OC)c(OC)c3)no2)cc(OCC)c1OCC", "Potency": "inactive"}, {"smiles": "Cc1ccccc1-c1nnc(-c2ccc(Cl)cc2)o1", "activity change, negative = inhibition": "inconclusive: 23.3% [at 7.6 µM]"}, {"smiles": "C=CCOn1c(=O)c(C)[n+]([O-])c2ccccc21", "activity change, negative = inhibition": "inconclusive: 50.3% [at 7.6 µM]"}, {"smiles": "CCC(=O)Nc1ccc(Nc2ccccc2)cc1", "Potency": "inconclusive: 3.98 µM [rising, full curve, poor fit]"}, {"smiles": "CCC(CC)C(=O)Nc1nnc(-c2cccs2)s1", "Potency": "inactive"}, {"smiles": "CCOC(=O)c1cccc(C(=O)OCC)n1", "Potency": "inconclusive: 10 µM [rising, single point]"}, {"smiles": "Cc1cc(C)nc(-n2nc(C)cc2NC(=O)CN2CCCC(C)C2)n1", "note": "(configuration not stated)", "Potency": "inconclusive: 5.01 µM [rising, partial curve]"}, {"smiles": "Cc1cc(NC(=O)c2c(-c3ccccc3Cl)noc2C)no1", "Potency": "inactive"}, {"smiles": "CCOC(=O)c1ccc(NC(=O)Oc2ccccc2)cc1", "activity change, negative = inhibition": "inconclusive: -19.3% [at 7.6 µM]"}, {"smiles": "CCOC(=O)c1oc2ccccc2c1NC(=O)c1cccc(OC)c1OC", "Potency": "active: 3.98 µM"}, {"smiles": "O=C(CSc1nc2ccncc2[nH]1)Nc1ccccc1C(F)(F)F", "Potency": "inconclusive: 12.6 µM [rising, partial curve]"}, {"smiles": "Cc1ccc(C(=O)n2cnnc2N)cc1C", "Potency": "inconclusive: 7.94 µM [falling, partial curve]"}, {"smiles": "Cn1c(NC(=O)c2ccc3c(c2)OCO3)cc(=O)n(C)c1=O", "Potency": "inactive"}, {"smiles": "O=C(CSc1ccc2c(c1)OCCO2)Nc1ccc(Cl)cn1", "activity change, negative = inhibition": "inconclusive: -25.2%"}, {"smiles": "c1ccc2c(c1)OCC(c1csc3ncnc(N4CCOCC4)c13)O2", "note": "(configuration not stated)", "Potency": "inconclusive: 0.398 µM [rising, full curve, poor fit]"}, {"smiles": "CCOC(=O)N1CCN(c2nc(C)c3c(n2)CCCC3=O)CC1", "Potency": "inactive"}, {"smiles": "COCCCNc1nc2c(c(=O)[nH]c(=O)n2C)n1CCCc1ccccc1", "Potency": "inconclusive: 10 µM [rising, partial curve]"}, {"smiles": "O=C(Nc1nnc(C23CC4CC(CC(C4)C2)C3)s1)c1ccco1", "activity change, negative = inhibition": "inconclusive: 5.99%"}, {"smiles": "CCOC(=O)c1cnc(SCc2ccccc2)nc1N", "Potency": "inactive"}, {"smiles": "COCCNC(=O)CSc1nc2ccccc2c2nc(C)nn12", "Potency": "inconclusive: 3.98 µM [rising, partial curve]"}, {"smiles": "CC(=O)NC1(C(F)(F)F)C(=O)Nc2c1c(=O)[nH]c(=O)n2Cc1ccco1", "note": "(configuration not stated)", "activity change, negative = inhibition": "inconclusive: 20.9%"}, {"smiles": "COc1ccc2cc(C(=O)NC3CCCCC3)c(=O)oc2c1", "Potency": "inactive"}, {"smiles": "COc1ccc(CNc2nc(SCC(=O)NCc3ccco3)nc3ccccc23)cc1", "activity change, negative = inhibition": "inconclusive: 2.39%"}, {"smiles": "COc1ccc(C2CC(c3c(O)cc(C)oc3=O)=NCCS2)c(OC)c1", "note": "(configuration not stated)", "Potency": "inconclusive: 1 µM [rising, partial curve]"}]}]}
